T1: CD19 (UniProt P15391 20-291, limits assumed)
T1 sequence (looked up): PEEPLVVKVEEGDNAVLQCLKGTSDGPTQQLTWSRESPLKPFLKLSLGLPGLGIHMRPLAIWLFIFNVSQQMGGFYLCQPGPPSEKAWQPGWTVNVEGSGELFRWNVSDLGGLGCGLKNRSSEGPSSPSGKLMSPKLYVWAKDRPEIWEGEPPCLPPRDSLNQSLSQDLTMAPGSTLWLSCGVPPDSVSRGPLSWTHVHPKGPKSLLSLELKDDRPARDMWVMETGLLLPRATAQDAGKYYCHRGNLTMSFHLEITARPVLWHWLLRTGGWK


How the values were obtained:
human CD3 [1] = target: T2, human CD3 (human, UniProt P07766 23-126; P04234 22-105); assay: BLI (Octet); conditions not stated
T2 construct: also called His-tagged human CD3; human CD3 (Acro CDD-H52W1)

CD19 = target: T1, CD19; assay: BLI (Octet); conditions not stated
NKG2D ligand = assay: BLI (Octet); conditions and ligand not stated
human EGFR = target: T3, human EGFR (human, UniProt P00533 fragment, limits assumed); assay: BLI (Octet), binder on AHC sensor, 200 nM human EGFR, 1:1 fit
T3 construct: Soluble antigen in Octet; construct not described

human CD3 [2] = target: T2, human CD3; assay: BLI (Octet), binder on AHC sensor, 100 nM human CD3, 1:1 fit
T2 sequence (P07766 23-126, chain 1 of 2): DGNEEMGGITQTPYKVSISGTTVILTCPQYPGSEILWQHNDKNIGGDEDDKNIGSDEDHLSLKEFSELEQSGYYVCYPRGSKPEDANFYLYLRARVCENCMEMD
T2 sequence (P04234 22-105, chain 2 of 2, further chain): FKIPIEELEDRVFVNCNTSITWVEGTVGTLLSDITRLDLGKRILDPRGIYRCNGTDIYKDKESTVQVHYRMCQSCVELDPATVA

human HER3 = target: T4, human HER3 (human, UniProt P21860 fragment); assay: BLI (Octet), binder on AHC sensor, 200 nM human HER3, 1:1 fit
T4 construct: Soluble antigen in Octet; bought; also called human HER3 (Acro ER3-H5223)

human 4-1BB = target: T5, human 4-1BB (human, UniProt Q07011 24-186, limits assumed); assay: BLI (Octet), binder on AHC sensor, 400 nM human 4-1BB, 1:1 fit
Chain of human 4-1BB (Q07011 24-186 limits assumed): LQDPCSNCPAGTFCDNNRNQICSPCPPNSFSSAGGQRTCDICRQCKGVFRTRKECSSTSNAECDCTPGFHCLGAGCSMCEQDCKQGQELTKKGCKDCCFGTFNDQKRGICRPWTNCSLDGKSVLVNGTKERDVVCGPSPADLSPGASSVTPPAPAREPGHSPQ
T5 construct: Soluble antigen in Octet; construct not described

| Kd (human CD3 [1]) | Kd (CD19) | Kd (NKG2D ligand) | Kd (human EGFR) | Kd (human CD3 [2]) | Kd (human HER3) | Kd (human 4-1BB) | Binder |
| --- | --- | --- | --- | --- | --- | --- | --- |
| 34.5 nM | 7.62 nM | 12.8 nM | – | – | – | – | SI-49R25 (other, tri-miniGNC; D1 αCD3, D2 αCD19, D3 NKG2D receptor dimer) chain 1: EIVMTQSPSTLSASVGDRVIITCQASESISSWLAWYQQKPGKAPKLLIYEASKLASGVPSRFSGSGSGAEFTLTISSLQPDDFATYYCQGYFYFISRTYVNSFGCGTKLTVLGSTGSGSKPGSGEGSTKGEVQLVESGGGLVQPGGSLRLSCTASGFTISTNAMSWVRQAPGKCLEWVGVITGRDITYYASWAKGRFTISRDTSKNTVYLQMNSLRAEDTAVYYCARDGGSSAITSNNIWGQGTLVTVSTGGGGSGGGGSFLNSLFNQEVQIPLTESYCGPCPKNWICYKNNCYQFFDESKNWYESQASCMSQNASLLKVYSKEDQDLLKLVKSYHWMGLVHIPTNGSWQWEDGSILSPNLLTIIEMQKGDCALYASSFKGYIENCSTPNTYICMQRTVASTKGPSVFPLAPSSKSTSGGTAALGCLVKDYFPEPVTVSWNSGALTSGVHTFPAVLQSSGLYSLSSVVTVPSSSLGTQTYICNVNHKPSNTKVDKRVEPKSCDKTHTCPPCPAPEAAGGPSVFLFPPKPKDTLMISRTPEVTCVVVDVSHEDPEVKFNWYVDGVEVHNAKTKPREEQYASTYRVVSVLTVLHQDWLNGKEYKCAVSNKALPAPIEKTISKAKGQPREPQVCTLPPSRDELTKNQVSLSCAVKGFYPSDIAVEWESNGQPENNYKTTPPVLDSDGSFFLVSKLTVDKSRWQQGNVFSCSVMHEALHNHYTQKSLSLSPG chain 2: ENVLTQSPASLSASPGERVTITCSASSSVSYMHWYQQKPGQAPKLWIYDTSKLASGVPSRFSGSGSGNDHTLTISSMEPEDFATYYCFQGSVYPFTFGQGTKLEIKGSTGSGSKPGSGEGSTKGQVTLKESGPGLVQPGQTLRLTCAFSGFSLSTSGMGVGWIRQPPGKGLEWLAHIWWDDDKRYNPALKSRLTISKDTSKNQVYLQMNSLDAEDTAVYYCARMELWSYYFDYWGQGTLVTVSTGGGGSGGGGSFLNSLFNQEVQIPLTESYCGPCPKNWICYKNNCYQFFDESKNWYESQASCMSQNASLLKVYSKEDQDLLKLVKSYHWMGLVHIPTNGSWQWEDGSILSPNLLTIIEMQKGDCALYASSFKGYIENCSTPNTYICMQRTVRTVAAPSVFIFPPSDEQLKSGTASVVCLLNNFYPREAKVQWKVDNALQSGNSQESVTEQDSKDSTYSLSSTLTLSKADYEKHKVYACEVTHQGLSSPVTKSFNRGECGG[human IgG1 Fc with L234A L235A N297A K322A S354C T366W (EU numbers) cut from this listing] |
| – | – | – | < 0.001 nM | 24.3 nM | 114 nM | – | SI-68X2 (other, tri-miniGNC, all scFv stapled; D1 αEGFR*, D2 αHER3, D3 αCD3 (Fab); also called tri-miniGNC (SI-68X2)) chain 1: DIQMTQSPSSLSASVGDRVTITCQASQDISNYLNWYQQKPGKAPKLLIYDASNLETGVPSRFSGSGSGTDFTFTISSLQPEDIATYFCQHFDHLPLAFGCGTKVEIKGGGGSGGGGSGGGGSGGGGSQVQLQESGPGLVKPSETLSLTCTVSGGSVSSGDYYWTWIRQSPGKCLEWIGHIYYSGNTNYNPSLKSRLTISIDTSKTQFSLKLSSVTAADTAIYYCVRDRVTGAFDIWGQGTMVTVSTGGGGSGGGGSEVQLVESGGGLVQPGGSLRLSCAASGFTISTNAMSWVRQAPGKGLEWIGVITGRDITYYASWAKGRFTISRDNSKNTLYLQMNSLRAEDTAVYYCARDGGSSAITSNNIWGQGTLVTVSSASTKGPSVFPLAPSSKSTSGGTAALGCLVKDYFPEPVTVSWNSGALTSGVHTFPAVLQSSGLYSLSSVVTVPSSSLGTQTYICNVNHKPSNTKVDKRVEPKSCDKTHTCPPCPAPEAAGGPSVFLFPPKPKDTLMISRTPEVTCVVVDVSHEDPEVKFNWYVDGVEVHNAKTKPREEQYASTYRVVSVLTVLHQDWLNGKEYKCAVSNKALPAPIEKTISKAKGQPREPQVCTLPPSRDELTKNQVSLSCAVKGFYPSDIAVEWESNGQPENNYKTTPPVLDSDGSFFLVSKLTVDKSRWQQGNVFSCSVMHEALHNHYTQKSLSLSPGK chain 2: QSALTQPASVSGSPGQSITISCTGTSSDVGGYNFVSWYQQHPGKAPKLMIYDVSDRPSGVSDRFSGSKSGNTASLIISGLQADDEADYYCSSYGSSSTHVIFGCGTKVTVLGGGGSGGGGSGGGGSGGGGSQVQLQESGGGLVKPGGSLRLSCAASGFTFSSYWMSWVRQAPGKCLEWVANINRDGSASYYVDSVKGRFTISRDDAKNSLYLQMNSLRAEDTAVYYCARDRGVGYFDLWGRGTLVTVSTGGGGSGGGGSDVVMTQSPSTLSASVGDRVTINCQASESISSWLAWYQQKPGKAPKLLIYEASKLASGVPSRFSGSGSGTEFTLTISSLQPDDFATYYCQGYFYFISRTYVNSFGGGTKVEIKRTVAAPSVFIFPPSDEQLKSGTASVVCLLNNFYPREAKVQWKVDNALQSGNSQESVTEQDSKDSTYSLSSTLTLSKADYEKHKVYACEVTHQGLSSPVTKSFNRGECGG[human IgG1 Fc with L234A L235A N297A K322A S354C T366W (EU numbers) cut from this listing] |
| – | – | – | < 0.001 nM | 26.2 nM | 139 nM | 12.7 nM | SI-68E1 (other, tetra-miniGNC, all scFv stapled; D1 αEGFR*, D2 αHER3, D3 αCD3 (Fab), D4 α4-1BB) chain 1: DIQMTQSPSSLSASVGDRVTITCQASQDISNYLNWYQQKPGKAPKLLIYDASNLETGVPSRFSGSGSGTDFTFTISSLQPEDIATYFCQHFDHLPLAFGCGTKVEIKGGGGSGGGGSGGGGSGGGGSQVQLQESGPGLVKPSETLSLTCTVSGGSVSSGDYYWTWIRQSPGKCLEWIGHIYYSGNTNYNPSLKSRLTISIDTSKTQFSLKLSSVTAADTAIYYCVRDRVTGAFDIWGQGTMVTVSTGGGGSGGGGSEVQLVESGGGLVQPGGSLRLSCAASGFTISTNAMSWVRQAPGKGLEWIGVITGRDITYYASWAKGRFTISRDNSKNTLYLQMNSLRAEDTAVYYCARDGGSSAITSNNIWGQGTLVTVSSASTKGPSVFPLAPSSKSTSGGTAALGCLVKDYFPEPVTVSWNSGALTSGVHTFPAVLQSSGLYSLSSVVTVPSSSLGTQTYICNVNHKPSNTKVDKRVEPKSCDKTHTCPPCPAPEAAGGPSVFLFPPKPKDTLMISRTPEVTCVVVDVSHEDPEVKFNWYVDGVEVHNAKTKPREEQYASTYRVVSVLTVLHQDWLNGKEYKCAVSNKALPAPIEKTISKAKGQPREPQVCTLPPSRDELTKNQVSLSCAVKGFYPSDIAVEWESNGQPENNYKTTPPVLDSDGSFFLVSKLTVDKSRWQQGNVFSCSVMHEALHNHYTQKSLSLSPGGGGGSGGGGSRSLVESGGGLVQPGGSLRLSCTASGFTISSYHMQWVRQAPGKCLEYIGTISSGGNVYYASSARGRFTISRPSSKNTVDLQMNSLRAEDTAVYYCARDSGYSDPMWGQGTLVTVSSGGGGSGGGGSGGGGSGGGGSDVVMTQSPSSVSASVGDRVTITCQASQNIRTYLSWYQQKPGKAPKLLIYAAANLASGVPSRFSGSGSGTDFTLTISDLEPGDAATYYCQSTYLGTDYVGGAFGCGTKVEIK chain 2: QSALTQPASVSGSPGQSITISCTGTSSDVGGYNFVSWYQQHPGKAPKLMIYDVSDRPSGVSDRFSGSKSGNTASLIISGLQADDEADYYCSSYGSSSTHVIFGCGTKVTVLGGGGSGGGGSGGGGSGGGGSQVQLQESGGGLVKPGGSLRLSCAASGFTFSSYWMSWVRQAPGKCLEWVANINRDGSASYYVDSVKGRFTISRDDAKNSLYLQMNSLRAEDTAVYYCARDRGVGYFDLWGRGTLVTVSTGGGGSGGGGSDVVMTQSPSTLSASVGDRVTINCQASESISSWLAWYQQKPGKAPKLLIYEASKLASGVPSRFSGSGSGTEFTLTISSLQPDDFATYYCQGYFYFISRTYVNSFGGGTKVEIKRTVAAPSVFIFPPSDEQLKSGTASVVCLLNNFYPREAKVQWKVDNALQSGNSQESVTEQDSKDSTYSLSSTLTLSKADYEKHKVYACEVTHQGLSSPVTKSFNRGECGG[human IgG1 Fc with L234A L235A N297A K322A S354C T366W (EU numbers) cut from this listing] |

Reference: patent US20230114801A1 (SYSTIMMUNE, published 2023)
